B1: QP728 (Fc fusion)
chain: DIVMTQSPDSLAVSLGERATINCKSSQSLLNSGNQKNYLAWYQQKPGQPPKLLIYGASTRESGVPDRFTGSGSGTDFTLTISSLQAEDVAVYYCQNDHSYPFTFGQGTKLEIKGGGGSGGGGSGGGGSQVQLVQSGAEVKKPGASVKVSCKASGYTFTSYIMHWVRQAPGQGLEWMGYINPYNDGTKYNEKFKGRVTMTRDTSTSTVYMELSSLRSEDTAVYYCARLGFTTRNAMDYWGQGTLVTVSSGGGGSGGGGSGGGGS[skipping about 120 residues]SGGGSGGGGSGGGGSGGGGSGGGSGGITCPPPMSVEHADIWVKSYSLYSRERYICNSGFKRKAGTCSLTECVLNKATNVAHWTTPSLKCIRGGGGS[skipping human IgG4 Fc with S228P (EU numbers)]
B2: QP3685, hSP34 mutant VH-VL-FC (Fc fusion)
scFv: EVQLLESGGGLVQPGGSLKLSCAASGFTFNTYAMNWVRQAPGKGLEWVARIRSKYNNYETYYADSVKDRFTISRDDSKNTAYLQMNNLKTEDTAVYYCVRHGNFGNSYVSWFAYWGQGTLVTVSSGGGGSGGGGSGGGGSELVVTQEPSLTVSPGGTVTLTCRSSTGAVTTSNYANWVQQKPGQAPRGLIGGTNLRAPGTPARFSGSLLGGKAALTLSGVQPEDEAEYYCALWRSGGWVFGGGTKLTVL[skipping human IgG1 Fc with changes]

What was measured:
[1] = target: T1, CD3 naturally expressed on Jurkat cells (human, UniProt P07766); experiment: FACS
[2] = target: T1, CD3 naturally expressed on Jurkat cells; experiment: FACS binding on Jurkat cells
[3] = target: T1, CD3 naturally expressed on Jurkat cells; experiment: FACS; remark: listed apart in the source

T1 sequence (P07766 23-207): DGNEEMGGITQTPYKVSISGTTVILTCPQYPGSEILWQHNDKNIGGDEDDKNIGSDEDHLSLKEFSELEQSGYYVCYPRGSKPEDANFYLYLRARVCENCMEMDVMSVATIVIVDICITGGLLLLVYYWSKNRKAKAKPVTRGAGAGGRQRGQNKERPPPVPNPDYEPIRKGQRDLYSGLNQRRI

Binder	EC50 [1]	EC50 [2]	EC50 [3]
B1	~1.08 µM	~1.08 µM	–
B2	–	–	0.000208 µM
